Hit rate of the full screen: of about 410,000 compounds, about 6,400 (1.6%) were called active. The shares of active, inactive and inconclusive entries below differ from those in the screen. The call rests on the fitted dose curve; in most records, active means well fitted inhibition curve with a large enough effect; inconclusive means small, poorly fitted or top-dose-only effect; inactive means no such curve, though single readings can be large or run the other way. Potencies of inconclusive entries are left out as doubtful fits.
Molecular target: Glucagon-like peptide 1 receptor (Homo sapiens) (UniProt P43220)
Test: qHTS of GLP-1 Receptor Inverse Agonists (Inhibition Mode); further: nearly all actives have a fitted effect of over 55% in size
Details: HEK293 GLP-1R CRE-luciferase, luminescence, 24 h, GLP-1R form is constitutively active; activity change, negative = inhibition: at 38.3 µM (top of the series) unless noted
Summary of the method: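 Inverse agonists were sought by their lowering of basal cAMP reporter luciferase output in HEK293 cells stably carrying constitutively active human GLP-1R, after 24 h compound treatment.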
On the % scale 0 is the no-effect control and ±100 the full control effect; potency means the concentration at half of the fitted maximal effect; tags describe the fitted curve by direction and shape.

UniProt P43220, sequence (P43220 whole entry, looked up): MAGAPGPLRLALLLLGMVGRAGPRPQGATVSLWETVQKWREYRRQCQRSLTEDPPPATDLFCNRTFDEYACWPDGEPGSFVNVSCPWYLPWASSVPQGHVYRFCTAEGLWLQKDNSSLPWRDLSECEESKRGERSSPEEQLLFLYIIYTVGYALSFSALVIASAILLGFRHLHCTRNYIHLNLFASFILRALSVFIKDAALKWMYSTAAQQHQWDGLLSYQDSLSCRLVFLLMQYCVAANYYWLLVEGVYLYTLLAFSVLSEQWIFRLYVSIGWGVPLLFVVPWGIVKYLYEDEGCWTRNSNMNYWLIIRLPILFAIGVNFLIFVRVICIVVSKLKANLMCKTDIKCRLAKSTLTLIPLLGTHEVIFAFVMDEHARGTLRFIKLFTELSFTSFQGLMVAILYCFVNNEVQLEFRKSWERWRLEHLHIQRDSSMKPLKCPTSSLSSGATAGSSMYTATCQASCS

`CCCc1c(C(=O)Nc2cc(C(C)(C)C)on2)cnn1-c1ccccc1` was tested. Which Potency did it give?
Its Potency is inconclusive [inhibitor, partial curve, poor fit].

`CC(NC(=O)c1ccc(F)cc1Cl)C1CC2CCC1C2` (stereo not drawn) was tested. Which Potency did it give?
The Potency was inconclusive [inhibitor, single point].

Which Potency does the source give for `O=C(NCC1CCCO1)c1ccc2c(c1)N(Cc1ccc(Cl)cc1)CCS2` (stereo not drawn) here?
Its Potency is active: 10 µM.

For `NNC(=O)c1sccc1OCc1cccc(C(F)(F)F)c1`, which Potency is on record?
Its Potency is inconclusive [inhibitor, single point].

For `CCN(CC)c1ccc(/C=N/NC(=O)Nc2nonc2N)cc1`, which “activity change, negative = inhibition” value is on record?
The value was inactive: -20.8%.

Which “activity change, negative = inhibition” value does the source give for `COc1ccc(NC(=O)c2c(NC(=O)Cc3ccccc3)sc3c2CCCC3)cc1` here?
The value was inactive: 13.8%.

With `O=C(CCSCc1ccccc1F)NCc1ccc(F)cc1` as the molecule, how does the Potency read?
The Potency was inconclusive [inhibitor, partial curve, poor fit].

`Cc1cc(NC(=S)N(CCN2CCOCC2)Cc2ccccc2F)ccc1Cl` was tested. Which Potency did it give?
The Potency was inconclusive [inhibitor, partial curve, poor fit].

With `COc1ccc(-c2nc3ccc(Br)cn3c2CC(C)(C)C)cc1OC` as the molecule, how does the Potency read?
Its Potency is inconclusive [inhibitor, single point].

Which Potency does the source give for `OC(CC1CC12c1ccccc1-c1ncccc12)(c1ccccc1)c1ccccc1` (stereo not drawn) here?
Its Potency is inconclusive [inhibitor, partial curve, poor fit].

With `Cc1cc(NC(=O)CCC(=O)N(c2ccc(C)c(F)c2)C(C(=O)NC2CCCC2)c2ccco2)no1` (stereo not drawn) as the molecule, how does the Potency read?
The Potency was inconclusive [inhibitor, single point].

`COc1ccccc1NNC(=O)c1cccnc1Oc1ccccc1` was tested. Which Potency did it give?
Its Potency is inconclusive [inhibitor, partial curve, poor fit].

With `O=C(CSc1ccccc1)N1CCc2ccccc21` as the molecule, how does the Potency read?
Its Potency is inconclusive [inhibitor, partial curve, poor fit].

With `C=C(C)Cn1c2ccc(NC(=O)CCc3cccc(Cl)c3)cc2c(=O)n1C` as the molecule, how does the Potency read?
Its Potency is inconclusive [inhibitor, partial curve, poor fit].

For `CCCCCCNCc1cccc(Br)c1`, which “activity change, negative = inhibition” value is on record?
Its value is inactive: -9.15%.

How did the Potency turn out when `CN(CC(=O)Nc1ccc(F)cc1)C(=O)c1ccccc1OCc1ccc(F)cc1` was run?
Its Potency is inconclusive [inhibitor, single point].

For `CCOc1ccc2nc(NC(=O)CSc3cn[nH]n3)sc2c1`, which Potency is on record?
Its Potency is inconclusive [inhibitor, single point].

How did the Potency turn out when `Cc1ccc(C(OC(=O)c2ccco2)C(=O)NC(C)(C)C)cc1` (stereo not drawn) was run?
Its Potency is inconclusive [inhibitor, single point].

How did the “activity change, negative = inhibition” value turn out when `Cc1ccc(N2CC(c3nnc(NC(=O)c4ccco4)s3)CC2=O)cc1Cl` (stereo not drawn) was run?
Its value is inactive: 7.1%.

How did the Potency turn out when `Cc1cc(NS(=O)(=O)c2ccc3nc(-c4ccccc4)[nH]c3c2)ccc1Br` was run?
The Potency was inconclusive [inhibitor, single point].

With `Cc1ccccc1OCCC(=O)OCC(=O)NC1CCCC1` as the molecule, how does the Potency read?
Its Potency is inconclusive [inhibitor, single point].

Which Potency does the source give for `C[C@@H]1CCCCO[C@H](CN(C)Cc2ccc3c(c2)OCO3)[C@@H](C)CN([C@H](C)CO)C(=O)c2cc(NC(=O)c3ccccc3)ccc2O1` here?
The Potency was inconclusive [inhibitor, single point].

With `COc1ccccc1-c1noc(CSc2nnc(Cc3ccccc3)n2-c2ccc(C)c(C)c2)n1` as the molecule, how does the Potency read?
The Potency was inconclusive [inhibitor, single point].

For `CC1CCCN(CCCOc2ccccc2-c2ccccc2)C1` (stereo not drawn), which Potency is on record?
Its Potency is inconclusive [inhibitor, partial curve, poor fit].

For `Fc1ccc(-c2ccc(Nc3cccc(F)c3)nn2)cc1`, which “activity change, negative = inhibition” value is on record?
Its value is inactive: 14.1%.

With `CN(Cc1cccc(F)c1)CC(O)COCc1ccccc1Cl` (stereo not drawn) as the molecule, how does the Potency read?
The Potency was inconclusive [inhibitor, partial curve].

With `COc1ccc(CN(Cc2nc3ccccc3c(=O)[nH]2)C(=O)NC2CCCCC2)cc1` as the molecule, how does the “activity change, negative = inhibition” value read?
Its value is inactive: -4.54%.

How did the Potency turn out when `CN(C(=O)CN1CCN(c2cc(-c3ccc(-c4ccccc4)cc3)ncn2)CC1)c1ccccc1` was run?
The Potency was inconclusive [inhibitor, partial curve, poor fit].

For `CC(=O)NS(=O)(=O)c1ccc(NC(=S)NC(=O)COc2ccccc2C)cc1`, which “activity change, negative = inhibition” value is on record?
Its value is inactive: 20.7%.

How did the Potency turn out when `Cc1cccc(C)c1N1CCN(C(=O)Nc2ccc3c(c2)OCCO3)CC1` was run?
Its Potency is inconclusive [inhibitor, partial curve, poor fit].

How did the Potency turn out when `CCOc1ccc(OCCC(=O)Nc2ccc3c(c2)OCO3)cc1` was run?
The Potency was inconclusive [inhibitor, single point].

With `CCc1ccc2[nH]c(=O)c(CN(CCN(CC)CC)C(=O)Nc3ccccc3OC)cc2c1` as the molecule, how does the Potency read?
The Potency was inconclusive [inhibitor, partial curve, poor fit].

How did the Potency turn out when `CC(C)(O)c1cc2ccc(C#Cc3ccsc3)cc2c(=O)o1` was run?
Its Potency is inconclusive [inhibitor, single point].

`COc1ccc(CNc2cc(NCCCO)c([N+](=O)[O-])c3nonc23)cc1` was tested. Which Potency did it give?
The Potency was inconclusive [inhibitor, full curve, poor fit].

How did the Potency turn out when `Cc1ccc(Cc2c(-c3cccc(Cl)c3)nc3c4ccccc4ccn23)cc1` was run?
Its Potency is inconclusive [inhibitor, single point].

`CC(=O)N1CCSc2ccc(S(=O)(=O)NCCc3ccc(Cl)cc3)cc21` was tested. Which Potency did it give?
Its Potency is inconclusive [inhibitor, partial curve, poor fit].

Which Potency does the source give for `O=C(OC(C(=O)NCc1ccco1)c1ccc(Cl)cc1)c1cccs1` (stereo not drawn) here?
Its Potency is inconclusive [inhibitor, partial curve, poor fit].

How did the Potency turn out when `CC1CCCN(c2ccc(C(=O)NCc3ccco3)cc2[N+](=O)[O-])C1` (stereo not drawn) was run?
Its Potency is inconclusive [inhibitor, single point].

How did the “activity change, negative = inhibition” value turn out when `COc1ccc(N/N=C(/C(N)=O)C2=NC(C)(C)Cc3ccccc32)cc1` was run?
The value was inactive: -16.7%.

With `CCOc1cccc2sc(N3CCN(C(=O)c4ccc5ncsc5c4)CC3)nc12` as the molecule, how does the “activity change, negative = inhibition” value read?
Its value is inactive: 18.1%.

How did the Potency turn out when `CCOC(=O)C1(Cc2cccc(OC)c2)CCN(Cc2cccc3c2OCO3)CC1` was run?
Its Potency is active: 10 µM.

`Cc1ccc(-n2nc3c(=O)n(CCCC(=O)NCCc4ccccc4)nc(C)c3c2C)cc1` was tested. Which Potency did it give?
Its Potency is inconclusive [inhibitor, full curve, poor fit].

For `Cc1ccc(NC(=O)C(=O)NCc2ccc(/C=N/NC(=O)c3c(C)nc4ccccn34)o2)cc1`, which “activity change, negative = inhibition” value is on record?
The value was inactive: 27.9%.

With `C=CCC[C@@H](CCCCC)OC(=O)/C=C/[C@@H](O)[C@H](O)C[C@@H](O)CC=C` as the molecule, how does the Potency read?
The Potency was inconclusive [inhibitor, single point].

Which Potency does the source give for `CCOc1ccc(CN(CCC#N)C(=S)NC(=O)c2ccccc2)cc1` here?
Its Potency is inconclusive [inhibitor, partial curve, poor fit].

How did the Potency turn out when `CNC(=S)N(CCc1c(C)[nH]c2ccc(Cl)cc12)Cc1cc(OC)c(OC)c(OC)c1` was run?
The Potency was inconclusive [inhibitor, single point].

With `O=C(c1ccc(F)cc1)C(CN1CCOCC1)c1ccccc1` (stereo not drawn) as the molecule, how does the Potency read?
The Potency was inconclusive [inhibitor, single point].

How did the Potency turn out when `COc1cc(C(=O)NCCOc2cccc(C)c2)c(Br)c(OC)c1OC` was run?
The Potency was inconclusive [inhibitor, full curve].

For `COc1ccc(NC(=O)CSCC(=O)N2CCN(c3cccc(C(F)(F)F)c3)CC2)cc1`, which Potency is on record?
The Potency was inconclusive [inhibitor, single point].

Which Potency does the source give for `CSc1ccc(C2c3[nH]c4ccccc4c3CCN2C(=O)CCc2ccccc2)cc1` (stereo not drawn) here?
Its Potency is inconclusive [inhibitor, full curve].

`O=c1[nH]c(=S)[nH]c2c1[C@H](C1CC1)O[C@H](CCc1ccccc1)C2` was tested. Which Potency did it give?
Its Potency is inconclusive [inhibitor, single point].

`COc1cccc(/C=C(/C#N)c2ccc(Cl)cc2)c1OCc1cccc(C(=O)O)c1` was tested. Which Potency did it give?
Its Potency is inconclusive [inhibitor, partial curve, poor fit].

How did the Potency turn out when `Cc1cc(C(=O)NN=C2CCCCC2)c2ccccc2n1` was run?
The Potency was inconclusive [inhibitor, single point].

For `CCNC(=O)c1cc2c(c(-c3cccc(-c4cc5ccccc5o4)c3)n1)[C@H](CCO)N(C(=O)NC(C)C)C2`, which Potency is on record?
The Potency was inconclusive [inhibitor, partial curve, poor fit].

`Cc1ccc(-c2sc(C(=O)Nc3ccc(Br)cc3)cc2CC(=O)O)cc1` was tested. Which Potency did it give?
Its Potency is inconclusive [inhibitor, single point].

`O=C(NCc1cccs1)Nc1cccc(Cl)c1` was tested. Which Potency did it give?
Its Potency is inconclusive [inhibitor, single point].

How did the Potency turn out when `COc1cccc(C(=O)C2CCCN(CC3=Cc4cc(OC)ccc4OC3)C2)c1` (stereo not drawn) was run?
The Potency was inconclusive [inhibitor, partial curve, poor fit].

For `O=C1Nc2ccccc2C12Nc1ccccc1-c1nc3ccccc3n12` (stereo not drawn), which Potency is on record?
The Potency was inconclusive [inhibitor, single point].

How did the Potency turn out when `O=C(NCC(c1ccco1)N1CCc2ccccc21)c1ccccc1Cl` (stereo not drawn) was run?
The Potency was inconclusive [inhibitor, partial curve, poor fit].

`O=C(Nc1ccccc1Sc1ccccc1)c1ccc(F)cc1` was tested. Which Potency did it give?
The Potency was active: 5.01 µM.

Which “activity change, negative = inhibition” value does the source give for `CCc1ccccc1OCC(=O)Nc1nnc(C2CC2)s1` here?
Its value is inactive: 10.4%.

For `Cc1cccc(C)c1OCC(=O)Nc1cccc(S(=O)(=O)N2CCCCCC2)c1`, which Potency is on record?
The Potency was inconclusive [inhibitor, partial curve, poor fit].

With `COCC1CCCCN1C(=O)C1CCN(c2nc(-c3ccccc3)nc3c2CCC3)CC1` (stereo not drawn) as the molecule, how does the Potency read?
The Potency was inconclusive [inhibitor, partial curve, poor fit].

From PubChem BioAssay AID624417 (National Center for Advancing Translational Sciences (NCATS), 2012)
